# Reference: PubChem BioAssay AID686978 (National Center for Advancing Translational Sciences (NCATS), 2013)
# Screen size: about 420,000 compounds; about 64,000 (15%) were called active. Inconclusive means that the source gave no clear call. Such entries were picked first, then a sample of the others. Calls follow the shape of the dose curve; as a rule, active = well fitted inhibition curve with a large enough effect; inconclusive = small, poorly fitted or top-dose-only effect; inactive = flat fitted curve, though single readings scatter. Potencies of inconclusive entries are left out as doubtful fits.
# Assay: qHTS for Inhibitors of human tyrosyl-DNA phosphodiesterase 1 (TDP1): qHTS in cells in absence of CPT; also: nearly all actives have a fitted effect of over 55% in size
# Details: DT40 Tdp1-/- hTDP1 cells, no CPT, ATP luminescence, 48 h; activity change, negative = growth inhibition: at 46.2 µM (top of the series) unless noted
# How it was run: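 DT40 Tdp1-/-;hTDP1 cells, no CPT (DMSO vehicle only), 400 cells/well; compounds pin-transferred; ≥48 hr, 37 °C; CellTiter-Glo 30 min RT dark, luminescence read.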
# % is scaled to controls: 0 for no effect and ±100 for the full control effect; potency is read from the fitted curve at half-maximal effect; tags tell the direction and shape of the fitted curve.
SMILES,Potency,"activity change, negative = growth inhibition"
Cc1cccc(C)c1OCC(=O)Nc1ccc(NC(=O)c2ccco2)cc1,active: 20.6 µM,
O=C(Nc1ccncc1)c1ccc(Cl)c(Cl)c1,active: 11.6 µM,
COC(=O)c1ccc(CSc2nnc(-c3c[nH]c4ccccc34)n2C)o1,active: 13 µM,
CCOc1cc(-c2nnc(SCC(=O)NCCCOC)nc2-c2ccc(OC)c(OCC)c2)ccc1OC,"inconclusive [inhibitor, single point]",
CC(C)(C)OC(=O)N[C@@H](COCc1ccccc1)C(=O)N[C@@H](CO)[C@H](O)[C@@H]1C[C@@H]1C(=O)N1CCCC1,inactive,
CCC(=O)Nc1nnc(S(=O)(=O)N2CCCCCC2)s1,inactive,
Cn1cc(S(=O)(=O)N2CCCCC2)cc1C(=O)NCc1ccc(Cl)cc1,"inconclusive [inhibitor, single point]",
CCn1c(C)nc2cc(N)ccc21,inactive,
Cc1ccc(N2CCN(S(=O)(=O)c3cc(Br)cc4c3N(C(=O)C3CC3)CC4)CC2C)cc1 (stereo unspecified),active: 16.4 µM,
CSc1cccc(NC(=O)/C=C/c2ccc(Cl)cc2)c1,,inconclusive: -30.9% [inhibitor]
CCCCSc1nnc2c(n1)OC(c1ccc(C)s1)Nc1ccccc1-2 (stereo unspecified),active: 11.6 µM,
CCOC(=O)/C(C#N)=C/c1cc2ccc(C)cc2nc1Cl,active: 2.91 µM,
O=C(NC(=S)Nc1cccnc1Cl)c1ccc(F)cc1,"inconclusive [inhibitor, single point]",
Cc1ccc(C(=O)n2cnnc2N)cc1,inactive,
O=C(Nc1ccc(S(=O)(=O)N2CCc3ccccc3C2)cc1)c1ccccc1,"inconclusive [inhibitor, single point]",
O=C(NCCc1ccccc1)C1Cc2c(-c3ccccc3Oc3ccccc3)ccnc2O1 (stereo unspecified),"inconclusive [inhibitor, single point]",
COc1ccc(CNC(=O)C2Cc3c(-c4cccc(F)c4)ccnc3O2)cc1OC (stereo unspecified),"inconclusive [inhibitor, partial curve]",
CCOc1ccc(N(CC(=O)Nc2ccc(C)cc2)S(=O)(=O)c2c(C)noc2C)cc1,inactive,
N#C/C(=C\c1cc(Cl)ccc1O)C(=O)NC1CCCCC1,"inconclusive [inhibitor, single point]",
O=C(NCc1ccccc1Cl)c1cccc(NC(=O)c2ccccc2)c1,inactive,
Cc1ccccc1C(=O)N/N=C/c1ccc(OCC(=O)N2CCCCC2)cc1,"inconclusive [inhibitor, single point]",
CCOc1ccc(-c2nnn(CC(=O)Nc3cccc(OC)c3)n2)cc1OCC,"inconclusive [inhibitor, single point]",
COc1cc(NC(=O)c2ccccc2)c(OC)cc1Cl,"inconclusive [inhibitor, single point]",

SMILES,Potency,"activity change, negative = growth inhibition"
C#C[C@]1(OC(C)=O)CCC2C3CCC4=CC(=O)CC[C@@H]4C3CC[C@@]21C (stereo partly specified),active: 23.1 µM,
COc1ccccc1NC(=O)c1ccc(Cl)c(S(=O)(=O)N2CCCCC2)c1,"inconclusive [inhibitor, partial curve, poor fit]",
CCCSc1ccc(-c2nn(-c3ccccc3)cc2/C=C(/C#N)C(=O)N2CCOCC2)cc1,"inconclusive [inhibitor, single point]",
O=C1c2ccc3c4c(ccc(c24)C(=O)N1c1ccc2ccccc2c1)CC3,"inconclusive [inhibitor, partial curve]",
CCCN(C(=O)c1cn(CC(C)C)c(=O)c2cc(OC)c(OC)cc12)c1cccc(C)c1,active: 14.6 µM,
CCS(=O)(=O)N1CC(=O)N(c2ccc(C)c(C)c2)C(C)(C(=O)NC2CCCCCC2)C1 (stereo unspecified),inactive,
CCOC(=O)C1CCN(C(=O)CC(C)c2ccccc2)CC1 (stereo unspecified),"inconclusive [inhibitor, single point]",
COc1ccc(N2CC(NC(=O)Cc3cccs3)CC2=O)cc1OC (stereo unspecified),inactive,
COc1cc(O)c2c(=O)c(-c3ccc(O[C@@H]4O[C@H](CO)[C@@H](O)[C@H](O)[C@H]4O)cc3)coc2c1,inactive,
COc1cc(-c2nn3c(-c4cccnc4)nnc3s2)cc(OC)c1OC,,inconclusive: -33.4% [inhibitor]
COc1cccc(-n2nnnc2SCC(=O)Nc2nc3c(s2)CCCC3)c1,"inconclusive [inhibitor, single point]",
COc1ccc(C)cc1-n1nnnc1SCC(=O)NC1CCCC1,"inconclusive [inhibitor, single point]",
N#CC1=C(N)n2c(s/c(=C\c3cccs3)c2=O)=C(C#N)C1c1cccs1 (stereo unspecified),"inconclusive [inhibitor, single point]",
COc1ccc(CNC(=O)c2ccc(Cn3nc(C)c([N+](=O)[O-])c3C)o2)cc1,active: 23.1 µM,
COc1cccc(C(=O)NCC(=O)N2CCC3(CC2)NCCc2[nH]cnc23)c1OC,inactive,
Cc1cc(C)c(NC(=O)CSc2nc3c([nH]c4ccccc43)c(=O)n2C)c(C)c1,"inconclusive [inhibitor, partial curve]",
Cc1ccccc1NC(=O)N1CCN(C/C=C/c2ccccc2)CC1,"inconclusive [inhibitor, single point]",
COc1cccc(NC(=O)C2CCN(c3cnccn3)CC2)c1,inactive,
COc1ccc(C(=O)/C=C/Nc2ccccn2)c(OC)c1,"inconclusive [inhibitor, single point]",
CCOc1ccc(NC(=O)CN(C)C(=O)C2CCN(C(=O)Nc3ccccc3)CC2)cc1OCC,inactive,
CCOC(=O)c1sc(NC(=O)C(C)C)c(C#N)c1C,"inconclusive [inhibitor, single point]",
CC[C@]12c3[nH]c4cc(-c5ccco5)ccc4c3CCN1C(=O)[C@@H](CC(=O)NCc1ccc(OC)c(OC)c1)C[C@@H]2C(=O)N1CCN(C(=O)c2ccco2)CC1,"inconclusive [inhibitor, single point]",
O=C(NCc1ccc(Cl)cc1)c1ccc(S(=O)(=O)N2CCCCC2)cc1,"inconclusive [inhibitor, single point]",
